Sequences and labels used below:
B1: Caulobacter ParB omega fusion; a variant is named by its letters at X, in order, B8GW30 (parent)
chain: MESVVVGEPGMSEGRRGLGRGLSALLGEVDAAPAQAPGEQLGGSREAPIEILQRNPDQPRRTFREEDLEDLSNSIREKGVLQPILVRPSPDTAGEYQIVAGERAWRAAQRAGLKTVPIMVRELDDLAVLEIGIIENVQRADLNVLEEALSYKVLMEKFERTQENIAQTIGKSXSHVANXMRLLXLPDEVQSYLVSGELTAXHARAIAAAADPVALAKQIIEGGLSVRETEALARKAPNLSAGKSKGGRPPRVKDTDTQALESDLSSVLGLDVSIDHRGSTGTLTITYATLEQLDDLCNRLTRGI

Whole data set: some 81,000 sequences, median “one-hybrid fitness for binding parS DNA” near -0.17, cut for the highest 2% near 0.51. Some of the results follow.

The variants in this assay derive from B1. Nature of the assay: one-hybrid fitness for binding parS DNA (scaled: cognate 1, non-cognate 0); higher = stronger binding. To be noted: with parS DNA site. Summed up: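 The reporter was HIS3, with the binding site 19 bp from the promoter, in E. coli USO used for bacterial one-hybrid selection of Caulobacter ParB libraries with four specificity codons randomised. Growth was on M9 lacking histidine, with 0.1 mM IPTG and 5 mM 3-AT, for 48 hours at 37°C. Illumina sequencing covered plasmids before and after selection; three replicate libraries were pooled and variants with under 10 reads dropped. A fitness score is the log change in variant-to-wild-type read ratio, rescaled to the cognate and non-cognate references.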
For WPLI, the “one-hybrid fitness for binding parS DNA” value is at most 0.2.
The same measure for QRAF: at most 0.2.
Take QLVV: the “one-hybrid fitness for binding parS DNA” value was at most 0.2.
Consider RLWE, for which the “one-hybrid fitness for binding parS DNA” value was at most 0.2.
The figure for SAPY is at most 0.2; for VYST it is at most 0.2; for CLKC it is at most 0.2.
In the case of PKDM, the “one-hybrid fitness for binding parS DNA” value is at most 0.2.
On to TVTA, for which the “one-hybrid fitness for binding parS DNA” value was at most 0.2.
As for RWEI, the “one-hybrid fitness for binding parS DNA” value was at most 0.2.
Regarding ANPQ, the “one-hybrid fitness for binding parS DNA” value was at most 0.2.
Turning to PTWT, the “one-hybrid fitness for binding parS DNA” value is at most 0.2.
On to SVPV, for which the “one-hybrid fitness for binding parS DNA” value is at most 0.2.
Regarding SRPQ, the “one-hybrid fitness for binding parS DNA” value was at most 0.2.
Take NLEI: the “one-hybrid fitness for binding parS DNA” value was at most 0.2.
Take MQLT: the “one-hybrid fitness for binding parS DNA” value is at most 0.2.
Take EGAR: the “one-hybrid fitness for binding parS DNA” value is at most 0.2.
With AYYW, the “one-hybrid fitness for binding parS DNA” value is at most 0.2.
NFPD: the “one-hybrid fitness for binding parS DNA” value was at most 0.2.
Take SDLC: the “one-hybrid fitness for binding parS DNA” value was at most 0.2.
With ARLG, the “one-hybrid fitness for binding parS DNA” value is at most 0.2.
As to RFTI, the “one-hybrid fitness for binding parS DNA” value was at most 0.2.
PDFY: the “one-hybrid fitness for binding parS DNA” value was at most 0.2.
Turning to GVNQ, the “one-hybrid fitness for binding parS DNA” value was at most 0.2.
With ESET, the “one-hybrid fitness for binding parS DNA” value is at most 0.2.
On to KVHE, for which the “one-hybrid fitness for binding parS DNA” value was at most 0.2.
As to HRES, the “one-hybrid fitness for binding parS DNA” value was at most 0.2.
Consider VNQG, for which the “one-hybrid fitness for binding parS DNA” value was at most 0.2.
As to AVMS, the “one-hybrid fitness for binding parS DNA” value was at most 0.2.
On to AMHG, for which the “one-hybrid fitness for binding parS DNA” value is at most 0.2.
The figure for GIEK is at most 0.2; for CVLD it is at most 0.2.
The figure for KTRF is at most 0.2; for MFVR it is at most 0.2; for HPWG it is at most 0.2.
The same measure for SNSG: at most 0.2.
Turning to QYIY, the “one-hybrid fitness for binding parS DNA” value was at most 0.2.
As for VIIE, the “one-hybrid fitness for binding parS DNA” value is at most 0.2.
AEVV: the “one-hybrid fitness for binding parS DNA” value was at most 0.2.
The figure for QAYP is at most 0.2.
SNTL: the “one-hybrid fitness for binding parS DNA” value is at most 0.2.
Take QHLA: the “one-hybrid fitness for binding parS DNA” value is at most 0.2.
For the variant VHKS, the “one-hybrid fitness for binding parS DNA” value was at most 0.2.
The figure for FRFT is at most 0.2.
TDQS: the “one-hybrid fitness for binding parS DNA” value is at most 0.2.
Regarding GAEY, the “one-hybrid fitness for binding parS DNA” value is at most 0.2.
Take RING: the “one-hybrid fitness for binding parS DNA” value is 1.03.
On to VIII, for which the “one-hybrid fitness for binding parS DNA” value is at most 0.2.
As for RYLE, the “one-hybrid fitness for binding parS DNA” value was at most 0.2.
Regarding IAED, the “one-hybrid fitness for binding parS DNA” value is at most 0.2.
With FSTY, the “one-hybrid fitness for binding parS DNA” value was at most 0.2.
For NMIS, the “one-hybrid fitness for binding parS DNA” value is at most 0.2.
With CSHG, the “one-hybrid fitness for binding parS DNA” value was at most 0.2.
With FLTF, the “one-hybrid fitness for binding parS DNA” value was at most 0.2.
On to ADRL, for which the “one-hybrid fitness for binding parS DNA” value was at most 0.2.
With PVVC, the “one-hybrid fitness for binding parS DNA” value is at most 0.2.
On to NFQG, for which the “one-hybrid fitness for binding parS DNA” value was at most 0.2.
SGTV: the “one-hybrid fitness for binding parS DNA” value is at most 0.2.
For the variant QMIP, the “one-hybrid fitness for binding parS DNA” value was at most 0.2.
Regarding PHRS, the “one-hybrid fitness for binding parS DNA” value was at most 0.2.
Consider MSIS, for which the “one-hybrid fitness for binding parS DNA” value was at most 0.2.
The same measure for MCNS: at most 0.2; for PCLS: at most 0.2.
Consider SRAH, for which the “one-hybrid fitness for binding parS DNA” value is at most 0.2.
On to NDRT, for which the “one-hybrid fitness for binding parS DNA” value was at most 0.2.
With KNTR, the “one-hybrid fitness for binding parS DNA” value was at most 0.2.
Turning to AAIM, the “one-hybrid fitness for binding parS DNA” value is at most 0.2.
For the variant DVTT, the “one-hybrid fitness for binding parS DNA” value is at most 0.2.
For the variant QWAF, the “one-hybrid fitness for binding parS DNA” value was at most 0.2.
Regarding PKTH, the “one-hybrid fitness for binding parS DNA” value was at most 0.2.
Consider LEKT, for which the “one-hybrid fitness for binding parS DNA” value was at most 0.2.
As to FNAV, the “one-hybrid fitness for binding parS DNA” value was at most 0.2.
Regarding DITL, the “one-hybrid fitness for binding parS DNA” value is at most 0.2.
On to TWKV, for which the “one-hybrid fitness for binding parS DNA” value was at most 0.2.
For the variant LYRE, the “one-hybrid fitness for binding parS DNA” value is at most 0.2.
The figure for YSFC is at most 0.2.
For the variant DTEG, the “one-hybrid fitness for binding parS DNA” value is at most 0.2.
Consider HHGY, for which the “one-hybrid fitness for binding parS DNA” value is at most 0.2.
Turning to QCGH, the “one-hybrid fitness for binding parS DNA” value was at most 0.2.
In the case of HAKT, the “one-hybrid fitness for binding parS DNA” value is at most 0.2.
As to TPSL, the “one-hybrid fitness for binding parS DNA” value is at most 0.2.
Regarding PFVG, the “one-hybrid fitness for binding parS DNA” value is at most 0.2.
The same measure for QTKI: at most 0.2; for LQMV: at most 0.2.
As for MHVY, the “one-hybrid fitness for binding parS DNA” value was at most 0.2.
FTSQ: the “one-hybrid fitness for binding parS DNA” value is at most 0.2.
Regarding YREE, the “one-hybrid fitness for binding parS DNA” value is at most 0.2.
Take ALSA: the “one-hybrid fitness for binding parS DNA” value is at most 0.2.
As to RTVH, the “one-hybrid fitness for binding parS DNA” value was at most 0.2.
The figure for IQMT is at most 0.2; for QQYM it is at most 0.2; for DTQF it is at most 0.2.
On to PEKM, for which the “one-hybrid fitness for binding parS DNA” value is at most 0.2.
Regarding TDNS, the “one-hybrid fitness for binding parS DNA” value was at most 0.2.
With NPLY, the “one-hybrid fitness for binding parS DNA” value was at most 0.2.
As to SNQS, the “one-hybrid fitness for binding parS DNA” value is at most 0.2.
On to IADR, for which the “one-hybrid fitness for binding parS DNA” value is at most 0.2.
Regarding GVYF, the “one-hybrid fitness for binding parS DNA” value was at most 0.2.
On to LWAY, for which the “one-hybrid fitness for binding parS DNA” value is at most 0.2.
In the case of MIGI, the “one-hybrid fitness for binding parS DNA” value is at most 0.2.
For IFSA, the “one-hybrid fitness for binding parS DNA” value is at most 0.2.
As for SYNR, the “one-hybrid fitness for binding parS DNA” value was at most 0.2.
The figure for CAYG is at most 0.2; for PFQT it is at most 0.2.
On to QEDS, for which the “one-hybrid fitness for binding parS DNA” value is at most 0.2.
On to NIPY, for which the “one-hybrid fitness for binding parS DNA” value was at most 0.2.
YDVW: the “one-hybrid fitness for binding parS DNA” value was at most 0.2.
For PVQC, the “one-hybrid fitness for binding parS DNA” value is at most 0.2.
For FQDC, the “one-hybrid fitness for binding parS DNA” value was at most 0.2.
For the variant ISES, the “one-hybrid fitness for binding parS DNA” value was at most 0.2.
The figure for NHSY is at most 0.2.
Regarding TEEA, the “one-hybrid fitness for binding parS DNA” value was at most 0.2.
Take PHAW: the “one-hybrid fitness for binding parS DNA” value was at most 0.2.
In the case of YKIS, the “one-hybrid fitness for binding parS DNA” value was at most 0.2.
For the variant FAQL, the “one-hybrid fitness for binding parS DNA” value is at most 0.2.
The same measure for NASC: at most 0.2; for SYQS: at most 0.2; for PRKL: at most 0.2.
The same measure for SEVG: at most 0.2.
The same measure for ASKS: at most 0.2.
As for THPQ, the “one-hybrid fitness for binding parS DNA” value was at most 0.2.
The same measure for LTAD: at most 0.2; for SEHT: at most 0.2.
CSCG: the “one-hybrid fitness for binding parS DNA” value was at most 0.2.
As for ANRL, the “one-hybrid fitness for binding parS DNA” value is at most 0.2.
On to RLCG, for which the “one-hybrid fitness for binding parS DNA” value came out at 1.
The figure for NTTM is at most 0.2; for KTKR it is at most 0.2; for RISD it is at most 0.2.
RFKC: the “one-hybrid fitness for binding parS DNA” value was found to be 0.991.
The same measure for IARS: at most 0.2.
CLDT: the “one-hybrid fitness for binding parS DNA” value is at most 0.2.
For the variant GFDG, the “one-hybrid fitness for binding parS DNA” value was at most 0.2.
As to CPFR, the “one-hybrid fitness for binding parS DNA” value was at most 0.2.
On to WNSG, for which the “one-hybrid fitness for binding parS DNA” value is at most 0.2.
On to GIGS, for which the “one-hybrid fitness for binding parS DNA” value was at most 0.2.
For the variant YYQR, the “one-hybrid fitness for binding parS DNA” value is at most 0.2.
The same measure for SASK: at most 0.2.
For the variant QLGS, the “one-hybrid fitness for binding parS DNA” value is at most 0.2.
On to TAGV, for which the “one-hybrid fitness for binding parS DNA” value is at most 0.2.
RQKV: the “one-hybrid fitness for binding parS DNA” value is at most 0.2.
For LDEQ, the “one-hybrid fitness for binding parS DNA” value was 0.369.
Take DRES: the “one-hybrid fitness for binding parS DNA” value is at most 0.2.
On to HVFI, for which the “one-hybrid fitness for binding parS DNA” value was at most 0.2.
Turning to PSEM, the “one-hybrid fitness for binding parS DNA” value amounted to 0.331.
On to CKSA, for which the “one-hybrid fitness for binding parS DNA” value was at most 0.2.
Take GMFN: the “one-hybrid fitness for binding parS DNA” value is at most 0.2.
TLEL: the “one-hybrid fitness for binding parS DNA” value was at most 0.2.
LDVF: the “one-hybrid fitness for binding parS DNA” value is at most 0.2.
Take HLPR: the “one-hybrid fitness for binding parS DNA” value is at most 0.2.
Regarding SSML, the “one-hybrid fitness for binding parS DNA” value is at most 0.2.
Consider MDSF, for which the “one-hybrid fitness for binding parS DNA” value is at most 0.2.
Consider AQET, for which the “one-hybrid fitness for binding parS DNA” value is at most 0.2.

(Values after a collection of fitness landscapes (doi:10.1016/j.celrep.2020.107928).)
